Assay results published in a collection of fitness landscapes (doi:10.1016/j.celrep.2020.107928).
Whole data set: some 81,000 sequences, median “one-hybrid fitness for binding parS DNA” near -0.17, cut for the highest 2% near 0.51. Some of the results follow.

B1: Caulobacter ParB omega fusion; a variant is named by its letters at X, in order, B8GW30 (parent)
chain: MESVVVGEPGMSEGRRGLGRGLSALLGEVDAAPAQAPGEQLGGSREAPIEILQRNPDQPRRTFREEDLEDLSNSIREKGVLQPILVRPSPDTAGEYQIVAGERAWRAAQRAGLKTVPIMVRELDDLAVLEIGIIENVQRADLNVLEEALSYKVLMEKFERTQENIAQTIGKSXSHVANXMRLLXLPDEVQSYLVSGELTAXHARAIAAAADPVALAKQIIEGGLSVRETEALARKAPNLSAGKSKGGRPPRVKDTDTQALESDLSSVLGLDVSIDHRGSTGTLTITYATLEQLDDLCNRLTRGI

Variants of: B1
Assay: one-hybrid fitness for binding parS DNA (scaled: cognate 1, non-cognate 0); higher = stronger binding
Settings: with parS DNA site
Procedure, shortened: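 On M9-minus-histidine containing 0.1 mM IPTG and 5 mM 3-AT, E. coli USO cells with a HIS3 reporter, site 19 bp from the promoter, grew 48 hours at 37°C to select Caulobacter ParB libraries randomised at four specificity codons. Plasmids from before and after were Illumina-sequenced, with three replicate libraries pooled and variants under 10 reads left out. Fitness is the log change in variant-to-wild-type read ratio, rescaled against cognate and non-cognate.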
With HQMT the “one-hybrid fitness for binding parS DNA” value was no more than 0.2. In the case of ADAR, the “one-hybrid fitness for binding parS DNA” value is reported as no more than 0.2. In the case of WSQK, the “one-hybrid fitness for binding parS DNA” value is reported as no more than 0.2. For LSHF, the “one-hybrid fitness for binding parS DNA” value was no more than 0.2. WWGG was tested, and the “one-hybrid fitness for binding parS DNA” value was no more than 0.2. In the case of YGLN, the “one-hybrid fitness for binding parS DNA” value is reported as no more than 0.2. QQPT was tested, and the “one-hybrid fitness for binding parS DNA” value was no more than 0.2. With IRPT the “one-hybrid fitness for binding parS DNA” value was no more than 0.2. With ITAK the “one-hybrid fitness for binding parS DNA” value was no more than 0.2. In the case of RLSQ, the “one-hybrid fitness for binding parS DNA” value is reported as no more than 0.2. In the case of ACLR, the “one-hybrid fitness for binding parS DNA” value is reported as no more than 0.2. With LIQN the “one-hybrid fitness for binding parS DNA” value was no more than 0.2. With TSHC the “one-hybrid fitness for binding parS DNA” value was no more than 0.2. In the case of TYPG, the “one-hybrid fitness for binding parS DNA” value is reported as no more than 0.2. HLHI was tested, and the “one-hybrid fitness for binding parS DNA” value was no more than 0.2. In the case of LAFH, the “one-hybrid fitness for binding parS DNA” value is reported as no more than 0.2. For KRLF, the “one-hybrid fitness for binding parS DNA” value was no more than 0.2. RATK was tested, and the “one-hybrid fitness for binding parS DNA” value was no more than 0.2. In the case of EVRP, the “one-hybrid fitness for binding parS DNA” value is reported as no more than 0.2. With PLTT the “one-hybrid fitness for binding parS DNA” value was no more than 0.2. With FGRM the “one-hybrid fitness for binding parS DNA” value was no more than 0.2. With NSPG the “one-hybrid fitness for binding parS DNA” value was no more than 0.2. NLVK was tested, and the “one-hybrid fitness for binding parS DNA” value was no more than 0.2. In the case of VAGF, the “one-hybrid fitness for binding parS DNA” value is reported as no more than 0.2. For KHTL, the “one-hybrid fitness for binding parS DNA” value was no more than 0.2. In the case of DREY, the “one-hybrid fitness for binding parS DNA” value is reported as no more than 0.2. For SDGR, the “one-hybrid fitness for binding parS DNA” value was no more than 0.2. GDGY was tested, and the “one-hybrid fitness for binding parS DNA” value was no more than 0.2. For NTEK, the “one-hybrid fitness for binding parS DNA” value was no more than 0.2. In the case of AGPG, the “one-hybrid fitness for binding parS DNA” value is reported as no more than 0.2. With HLHR the “one-hybrid fitness for binding parS DNA” value was no more than 0.2. With AQDT the “one-hybrid fitness for binding parS DNA” value was no more than 0.2. In the case of LTAM, the “one-hybrid fitness for binding parS DNA” value is reported as no more than 0.2. In the case of MIYG, the “one-hybrid fitness for binding parS DNA” value is reported as no more than 0.2. With TRRW the “one-hybrid fitness for binding parS DNA” value was no more than 0.2. For RLVW, the “one-hybrid fitness for binding parS DNA” value was 0.258. In the case of HRNS, the “one-hybrid fitness for binding parS DNA” value is reported as 0.362. For VAWE, the “one-hybrid fitness for binding parS DNA” value was no more than 0.2. In the case of VLNM, the “one-hybrid fitness for binding parS DNA” value is reported as no more than 0.2. With QKAF the “one-hybrid fitness for binding parS DNA” value was no more than 0.2. In the case of HEQS, the “one-hybrid fitness for binding parS DNA” value is reported as no more than 0.2. For VIAM, the “one-hybrid fitness for binding parS DNA” value was no more than 0.2. With PPHE the “one-hybrid fitness for binding parS DNA” value was no more than 0.2. For NAAG, the “one-hybrid fitness for binding parS DNA” value was no more than 0.2. LFVP was tested, and the “one-hybrid fitness for binding parS DNA” value was no more than 0.2. In the case of EESN, the “one-hybrid fitness for binding parS DNA” value is reported as no more than 0.2. For HEPT, the “one-hybrid fitness for binding parS DNA” value was no more than 0.2. AACT was tested, and the “one-hybrid fitness for binding parS DNA” value was no more than 0.2. QALA was tested, and the “one-hybrid fitness for binding parS DNA” value was no more than 0.2. For YTKK, the “one-hybrid fitness for binding parS DNA” value was no more than 0.2. In the case of LIWD, the “one-hybrid fitness for binding parS DNA” value is reported as no more than 0.2. With LTQD the “one-hybrid fitness for binding parS DNA” value was no more than 0.2. PTMV was tested, and the “one-hybrid fitness for binding parS DNA” value was no more than 0.2. ATSW was tested, and the “one-hybrid fitness for binding parS DNA” value was no more than 0.2. For DHNC, the “one-hybrid fitness for binding parS DNA” value was no more than 0.2. AYGC was tested, and the “one-hybrid fitness for binding parS DNA” value was no more than 0.2. With TRVV the “one-hybrid fitness for binding parS DNA” value was no more than 0.2. DVYL was tested, and the “one-hybrid fitness for binding parS DNA” value was no more than 0.2. In the case of NSCG, the “one-hybrid fitness for binding parS DNA” value is reported as no more than 0.2. VYTC was tested, and the “one-hybrid fitness for binding parS DNA” value was no more than 0.2. LTTK was tested, and the “one-hybrid fitness for binding parS DNA” value was no more than 0.2. With ERTA the “one-hybrid fitness for binding parS DNA” value was no more than 0.2. In the case of SYAY, the “one-hybrid fitness for binding parS DNA” value is reported as no more than 0.2. With CLAC the “one-hybrid fitness for binding parS DNA” value was no more than 0.2. With CMTC the “one-hybrid fitness for binding parS DNA” value was no more than 0.2. For RVGG, the “one-hybrid fitness for binding parS DNA” value was 1.01. In the case of DRPS, the “one-hybrid fitness for binding parS DNA” value is reported as no more than 0.2. NKED was tested, and the “one-hybrid fitness for binding parS DNA” value was no more than 0.2. With TVRL the “one-hybrid fitness for binding parS DNA” value was no more than 0.2. With FCRG the “one-hybrid fitness for binding parS DNA” value was no more than 0.2. For MSRS, the “one-hybrid fitness for binding parS DNA” value was no more than 0.2. CEVW was tested, and the “one-hybrid fitness for binding parS DNA” value was no more than 0.2. For IWNS, the “one-hybrid fitness for binding parS DNA” value was no more than 0.2. For FVDR, the “one-hybrid fitness for binding parS DNA” value was no more than 0.2. With LLHC the “one-hybrid fitness for binding parS DNA” value was no more than 0.2. With PGVC the “one-hybrid fitness for binding parS DNA” value was no more than 0.2. In the case of SAPD, the “one-hybrid fitness for binding parS DNA” value is reported as no more than 0.2. In the case of DALE, the “one-hybrid fitness for binding parS DNA” value is reported as no more than 0.2. LPQC was tested, and the “one-hybrid fitness for binding parS DNA” value was no more than 0.2. With EQDT the “one-hybrid fitness for binding parS DNA” value was no more than 0.2. RTPD was tested, and the “one-hybrid fitness for binding parS DNA” value was no more than 0.2. In the case of AKVC, the “one-hybrid fitness for binding parS DNA” value is reported as no more than 0.2. QCDC was tested, and the “one-hybrid fitness for binding parS DNA” value was no more than 0.2. LQSC was tested, and the “one-hybrid fitness for binding parS DNA” value was no more than 0.2. LQEC was tested, and the “one-hybrid fitness for binding parS DNA” value was no more than 0.2. In the case of PPMA, the “one-hybrid fitness for binding parS DNA” value is reported as no more than 0.2. For GFQT, the “one-hybrid fitness for binding parS DNA” value was no more than 0.2. With KEHL the “one-hybrid fitness for binding parS DNA” value was no more than 0.2. With RKRN the “one-hybrid fitness for binding parS DNA” value was 0.347. In the case of ACKA, the “one-hybrid fitness for binding parS DNA” value is reported as no more than 0.2. In the case of PTSM, the “one-hybrid fitness for binding parS DNA” value is reported as no more than 0.2. In the case of QEAG, the “one-hybrid fitness for binding parS DNA” value is reported as no more than 0.2. VINV was tested, and the “one-hybrid fitness for binding parS DNA” value was no more than 0.2. For NNIL, the “one-hybrid fitness for binding parS DNA” value was no more than 0.2. For SNCI, the “one-hybrid fitness for binding parS DNA” value was no more than 0.2. With QDNI the “one-hybrid fitness for binding parS DNA” value was no more than 0.2. With RHLN the “one-hybrid fitness for binding parS DNA” value was 0.376. For SWRL, the “one-hybrid fitness for binding parS DNA” value was no more than 0.2. HHKY was tested, and the “one-hybrid fitness for binding parS DNA” value was no more than 0.2. In the case of QDDG, the “one-hybrid fitness for binding parS DNA” value is reported as no more than 0.2. In the case of HRST, the “one-hybrid fitness for binding parS DNA” value is reported as no more than 0.2. For RSWG, the “one-hybrid fitness for binding parS DNA” value was 0.93. With PKHY the “one-hybrid fitness for binding parS DNA” value was no more than 0.2. For SRRD, the “one-hybrid fitness for binding parS DNA” value was no more than 0.2. With CVTI the “one-hybrid fitness for binding parS DNA” value was no more than 0.2. For PAAI, the “one-hybrid fitness for binding parS DNA” value was no more than 0.2. For LEAT, the “one-hybrid fitness for binding parS DNA” value was no more than 0.2. For AANC, the “one-hybrid fitness for binding parS DNA” value was no more than 0.2. For PHSE, the “one-hybrid fitness for binding parS DNA” value was no more than 0.2. For PAQS, the “one-hybrid fitness for binding parS DNA” value was no more than 0.2. YYNS was tested, and the “one-hybrid fitness for binding parS DNA” value was no more than 0.2. VCGT was tested, and the “one-hybrid fitness for binding parS DNA” value was no more than 0.2. SKTF was tested, and the “one-hybrid fitness for binding parS DNA” value was no more than 0.2. For SDLW, the “one-hybrid fitness for binding parS DNA” value was no more than 0.2. In the case of GENG, the “one-hybrid fitness for binding parS DNA” value is reported as no more than 0.2. EVAD was tested, and the “one-hybrid fitness for binding parS DNA” value was no more than 0.2. KTNH was tested, and the “one-hybrid fitness for binding parS DNA” value was no more than 0.2. In the case of ARTV, the “one-hybrid fitness for binding parS DNA” value is reported as no more than 0.2. In the case of LRAI, the “one-hybrid fitness for binding parS DNA” value is reported as no more than 0.2. For QNHA, the “one-hybrid fitness for binding parS DNA” value was no more than 0.2. For RAPE, the “one-hybrid fitness for binding parS DNA” value was no more than 0.2. With ICLK the “one-hybrid fitness for binding parS DNA” value was no more than 0.2. With RKAI the “one-hybrid fitness for binding parS DNA” value was no more than 0.2. For GKGF, the “one-hybrid fitness for binding parS DNA” value was no more than 0.2. With PCAM the “one-hybrid fitness for binding parS DNA” value was no more than 0.2. In the case of MDRY, the “one-hybrid fitness for binding parS DNA” value is reported as no more than 0.2. With CQYR the “one-hybrid fitness for binding parS DNA” value was no more than 0.2. In the case of GNKL, the “one-hybrid fitness for binding parS DNA” value is reported as no more than 0.2. RNVS was tested, and the “one-hybrid fitness for binding parS DNA” value was 0.674. DVNL was tested, and the “one-hybrid fitness for binding parS DNA” value was no more than 0.2. GAKG was tested, and the “one-hybrid fitness for binding parS DNA” value was no more than 0.2. PHQQ was tested, and the “one-hybrid fitness for binding parS DNA” value was no more than 0.2. QKIE was tested, and the “one-hybrid fitness for binding parS DNA” value was no more than 0.2. RGVY was tested, and the “one-hybrid fitness for binding parS DNA” value was no more than 0.2. In the case of WVWT, the “one-hybrid fitness for binding parS DNA” value is reported as no more than 0.2. In the case of AKRH, the “one-hybrid fitness for binding parS DNA” value is reported as no more than 0.2. With IELR the “one-hybrid fitness for binding parS DNA” value was no more than 0.2. QTFL was tested, and the “one-hybrid fitness for binding parS DNA” value was no more than 0.2. With LCTS the “one-hybrid fitness for binding parS DNA” value was no more than 0.2. In the case of DLAR, the “one-hybrid fitness for binding parS DNA” value is reported as no more than 0.2. SSST was tested, and the “one-hybrid fitness for binding parS DNA” value was no more than 0.2. ELLT was tested, and the “one-hybrid fitness for binding parS DNA” value was no more than 0.2. For LTYN, the “one-hybrid fitness for binding parS DNA” value was no more than 0.2. For SQCG, the “one-hybrid fitness for binding parS DNA” value was no more than 0.2. In the case of APLI, the “one-hybrid fitness for binding parS DNA” value is reported as no more than 0.2. In the case of RTTT, the “one-hybrid fitness for binding parS DNA” value is reported as 0.917. YQDL was tested, and the “one-hybrid fitness for binding parS DNA” value was no more than 0.2. TCSF was tested, and the “one-hybrid fitness for binding parS DNA” value was no more than 0.2. With SFHI the “one-hybrid fitness for binding parS DNA” value was no more than 0.2. CPYI was tested, and the “one-hybrid fitness for binding parS DNA” value was no more than 0.2. In the case of FGPS, the “one-hybrid fitness for binding parS DNA” value is reported as no more than 0.2. WYYC was tested, and the “one-hybrid fitness for binding parS DNA” value was no more than 0.2. For ITTT, the “one-hybrid fitness for binding parS DNA” value was no more than 0.2.
